Measured values taken from patent US20250270339A1 (Alector, published 2025).
Each block holds one binder with its values, some of them ahead of it.

Legend:
[1] = molecular target: T1, Cyno TfR ECD Avi-His (cynomolgus macaque, UniProt Q5RDH6 89-760 (Pongo abelii entry), biotin on the Avi tag (BirA) where captured on streptavidin); test: BLI (GatorBio), biotinylated TfR on probe
T1 construct: also called Cyno TfR Avi-His; cyno TfR Avi-His
T1 chain: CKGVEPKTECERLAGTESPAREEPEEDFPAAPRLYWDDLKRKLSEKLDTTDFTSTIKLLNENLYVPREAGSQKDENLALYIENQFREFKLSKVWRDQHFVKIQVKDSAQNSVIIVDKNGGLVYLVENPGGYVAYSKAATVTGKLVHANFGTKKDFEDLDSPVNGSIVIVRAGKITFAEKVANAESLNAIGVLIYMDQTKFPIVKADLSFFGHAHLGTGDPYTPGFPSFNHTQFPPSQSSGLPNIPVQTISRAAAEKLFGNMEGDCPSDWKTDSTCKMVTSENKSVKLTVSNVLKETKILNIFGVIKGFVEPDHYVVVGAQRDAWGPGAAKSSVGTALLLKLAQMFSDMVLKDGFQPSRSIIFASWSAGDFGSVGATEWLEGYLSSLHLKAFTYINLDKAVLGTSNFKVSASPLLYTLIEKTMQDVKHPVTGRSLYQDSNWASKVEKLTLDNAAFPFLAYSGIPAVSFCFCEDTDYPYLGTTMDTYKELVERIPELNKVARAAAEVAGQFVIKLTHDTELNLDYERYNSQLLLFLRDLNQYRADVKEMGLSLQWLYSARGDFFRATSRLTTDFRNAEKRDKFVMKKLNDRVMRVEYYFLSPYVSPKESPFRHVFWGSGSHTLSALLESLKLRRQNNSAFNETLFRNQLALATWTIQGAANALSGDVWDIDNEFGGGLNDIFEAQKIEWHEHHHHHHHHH

[2] = molecular target: T1, Cyno TfR ECD Avi-His; test: SPR (Carterra LSA), 2+1 immobilised
Procedure: The remaining unconjugated active groups on the chip were then blocked by injecting 1M Ethanolamine pH 8.5 (Carterra) for 7 minutes using the single channel flow cell.
Estimates of affinity were generated by injecting each analyte over the entire antibody array using the single channel flow cell. […] Data were processed and analyzed using NextGenKIT high-throughput kinetics analysis software (Carterra).

Kd [1]: 1300 nM
B1: TfR9.1B.39 2+1 anti-TfR bispecific antibody (bispecific antibody, human IgG1, kappa)
heavy 1: EVRLLESGGGLVQPGGSLRLSCAASGFTFSNYAMGWVRQAPGKGLEWVSAISGSGGSTYYADSVKGRFTTSRDDSKNALYLQMNSLRAEDTAVYYCARGGPGWYAADVWGQGTTVTVSSASTKGPSVFPLAPSSKSTSGGTAALGCLVKDYFPEPVTVSWNSGALTSGVHTFPAVLQSSGLYSLSSVVTVPSSSLGTQTYICNVNHKPSNTKVDKKV[here human IgG1 Fc with changes without letters]GGGGSGGGGSGGGGSQVQLVQSGAEVKKPGASVKVSCKASGYTFTEYAMHWVRQAPGQGLEWMGGINPNDGGTSYNQKFKGRVTMTVDTSTSTAYMELSSLRSEDTAVYYCASQGWLLRGGDYWGQGTLVTVSSGGSEGKSSGSGSESKSTGGSDVVMTQSPLSLPVTLGQPASISCKASQSLLDEDGKTYLNWLQQRPGQSPRRLIYLVSKLDSGVPDRFSGSGSGTDFTLKISRVEAEDVGVYYCWQGTHFPQTFGGGTKVEIK
heavy 2: EVRLLESGGGLVQPGGSLRLSCAASGFTFSNYAMGWVRQAPGKGLEWVSAISGSGGSTYYADSVKGRFTTSRDDSKNALYLQMNSLRAEDTAVYYCARGGPGWYAADVWGQGTTVTVSS[here human IgG1 constant region with changes without letters]
light: DIQMTQSPSSLSASVGDRVTITCRASQSISSYLNWYQQKPGKAPKLLIYAASSLQSGVPSRFSGSGSGTDFTLTISSLQPEDFATYYCQQADLPAFAFGGGTKVEIKRTVAAPSVFIFPPSDEQLKSGTASVVCLLNNFYPREAKVQWKVDNALQSGNSQESVTEQDSKDSTYSLSSTLTLSKADYEKHKVYACEVTHQGLSSPVTKSFNRGEC
notes: 2+1

Kd [2]: 53 nM
B2: TfR15.WH7 2+1 anti-TfR bispecific antibody (bispecific antibody, human IgG1, kappa)
heavy 1: EVRLLESGGGLVQPGGSLRLSCAASGFTFSNYAMGWVRQAPGKGLEWVSAISGSGGSTYYADSVKGRFTTSRDDSKNALYLQMNSLRAEDTAVYYCARGGPGWYAADVWGQGTTVTVSSASTKGPSVFPLAPSSKSTSGGTAALGCLVKDYFPEPVTVSWNSGALTSGVHTFPAVLQSSGLYSLSSVVTVPSSSLGTQTYICNVNHKPSNTKVDKKV[here human IgG1 Fc with changes without letters]GGGGSGGGGSGGGGSQVQLVQSGAEVKKPGASVKVSCKASGYTFTSYWMHWVRQAPGQGLEWMGNIYPGSGSSNYAQKFQGRVTMTRDTSTSTVYMELSSLRSEDTAVYYCTRSSYYGNFDTMDNWGQGTTVTVSSGGSEGKSSGSGSESKSTGGSDIQLTQSPSFLSASVGDRVTITCRASSSIRYMNWYQQKPGKAPKRLIYDTSTLQSGVPSRFSGSGSGTEFTLTISSLQPEDFATYYCHQRSSYPWTFGGGTKVEIK
heavy 2: EVRLLESGGGLVQPGGSLRLSCAASGFTFSNYAMGWVRQAPGKGLEWVSAISGSGGSTYYADSVKGRFTTSRDDSKNALYLQMNSLRAEDTAVYYCARGGPGWYAADVWGQGTTVTVSS[here human IgG1 constant region with changes without letters]
light: B1 light
notes: 2+1

Kd [2]: 18 nM
B3: TfR15.WH8 2+1 anti-TfR bispecific antibody (bispecific antibody, human IgG1, kappa)
heavy 1: EVRLLESGGGLVQPGGSLRLSCAASGFTFSNYAMGWVRQAPGKGLEWVSAISGSGGSTYYADSVKGRFTTSRDDSKNALYLQMNSLRAEDTAVYYCARGGPGWYAADVWGQGTTVTVSSASTKGPSVFPLAPSSKSTSGGTAALGCLVKDYFPEPVTVSWNSGALTSGVHTFPAVLQSSGLYSLSSVVTVPSSSLGTQTYICNVNHKPSNTKVDKKV[here human IgG1 Fc with changes without letters]GGGGSGGGGSGGGGSQVQLVQSGAEVKKPGASVKVSCKASGYTFTSYWMHWVRQAPGQGLEWMGNIYPGSGSSNYAQKFQGRVTMTRDTSTSTVYMELSSLRSEDTAVYYCTRSSYYGNFDTMDNWGQGTTVTVSSGGSEGKSSGSGSESKSTGGSEIVLTQSPATLSLSPGERATLSCRASSSIRYMNWYQQKPGQAPRRLIYDTSNRATGIPARFSGSGSGTDFTLTISSLEPEDFAVYYCHQRSSYPWTFGGGTKVEIK
heavy 2: EVRLLESGGGLVQPGGSLRLSCAASGFTFSNYAMGWVRQAPGKGLEWVSAISGSGGSTYYADSVKGRFTTSRDDSKNALYLQMNSLRAEDTAVYYCARGGPGWYAADVWGQGTTVTVSS[here human IgG1 constant region with changes without letters]
light: B1 light
notes: 2+1

binding result [2]: binds
B4: TfR15.WH2 2+1 anti-TfR bispecific antibody (bispecific antibody, human IgG1, kappa)
heavy 1: EVRLLESGGGLVQPGGSLRLSCAASGFTFSNYAMGWVRQAPGKGLEWVSAISGSGGSTYYADSVKGRFTTSRDDSKNALYLQMNSLRAEDTAVYYCARGGPGWYAADVWGQGTTVTVSSASTKGPSVFPLAPSSKSTSGGTAALGCLVKDYFPEPVTVSWNSGALTSGVHTFPAVLQSSGLYSLSSVVTVPSSSLGTQTYICNVNHKPSNTKVDKKV[here human IgG1 Fc with changes without letters]GGGGSGGGGSGGGGSQVQLVQSGAEVKKPGASVKVSCKASGYTFTSYWMHWVRQAPGQGLEWMGIIYPGSGSSNYAQKFQGRVTMTRDTSTSTVYMELSSLRSEDTAVYYCTRSSYYGNFDTMDNWGQGTTVTVSSGGSEGKSSGSGSESKSTGGSEIVLTQSPATLSLSPGERATLSCRASSSIRYMNWYQQKPGQAPRRLIYDTSNRATGIPARFSGSGSGTDFTLTISSLEPEDFAVYYCHQRSSYPWTFGGGTKVEIK
heavy 2: EVRLLESGGGLVQPGGSLRLSCAASGFTFSNYAMGWVRQAPGKGLEWVSAISGSGGSTYYADSVKGRFTTSRDDSKNALYLQMNSLRAEDTAVYYCARGGPGWYAADVWGQGTTVTVSS[here human IgG1 constant region with changes without letters]
light: B1 light
notes: 2+1

binding result [1]: binds
B5: TfR9.1B.39.05 2+1 anti-TfR bispecific antibody (bispecific antibody, human IgG1, kappa)
heavy 1: EVRLLESGGGLVQPGGSLRLSCAASGFTFSNYAMGWVRQAPGKGLEWVSAISGSGGSTYYADSVKGRFTTSRDDSKNALYLQMNSLRAEDTAVYYCARGGPGWYAADVWGQGTTVTVSSASTKGPSVFPLAPSSKSTSGGTAALGCLVKDYFPEPVTVSWNSGALTSGVHTFPAVLQSSGLYSLSSVVTVPSSSLGTQTYICNVNHKPSNTKVDKKV[here human IgG1 Fc with changes without letters]GGGGSGGGGSGGGGSQVQLVQSGAEVKKPGASVKVSCKASGYTFTEYAMHWVRQAPGQGLEWMGGIDPRSGGTSYNQKFKGRVTMTVDTSTSTAYMELSSLRSEDTAVYYCASQGWLKRGGDYWGQGTLVTVSSGGSEGRSSGSGSESKSTGGSDVVMTQSPLSLPVTLGQPASISCKASQSLLDEEGKTYLNWLQQRPGQSPRRLIYLVSKLDSGVPDRFSGSGSGTDFTLKISRVEAEDVGVYYCWQGTHFPQTFGGGTKVEIK
heavy 2: EVRLLESGGGLVQPGGSLRLSCAASGFTFSNYAMGWVRQAPGKGLEWVSAISGSGGSTYYADSVKGRFTTSRDDSKNALYLQMNSLRAEDTAVYYCARGGPGWYAADVWGQGTTVTVSS[here human IgG1 constant region with changes without letters]
light: B1 light
notes: 2+1; also called TfR9.1B.39.5

binding result [1]: binds
B6: TfR15.WH12.1 2+1 anti-TfR bispecific antibody (bispecific antibody, human IgG1, kappa)
heavy 1: EVRLLESGGGLVQPGGSLRLSCAASGFTFSNYAMGWVRQAPGKGLEWVSAISGSGGSTYYADSVKGRFTTSRDDSKNALYLQMNSLRAEDTAVYYCARGGPGWYAADVWGQGTTVTVSSASTKGPSVFPLAPSSKSTSGGTAALGCLVKDYFPEPVTVSWNSGALTSGVHTFPAVLQSSGLYSLSSVVTVPSSSLGTQTYICNVNHKPSNTKVDKKV[here human IgG1 Fc with changes without letters]GGGGSGGGGSGGGGSQVQLVQSGAEVKKPGASVKVSCKASGYTFTSYYMHWVRQAPGQGLEWMGNIYPGSGSSNYAQKFQGRVTLTVDTSTSTVYMELSSLRSEDTAVYYCTRSSYYGNFDTMDNWGQGTTVTVSSGGSEGKSSGSGSESKSTGGSDIQMTQSPSSLSASVGDRVTITCRASSSIRYLNWYQQKPGKAPKRLIYDTSSLQSGVPSRFSGSGSGTDFTLTISSLQPEDFATYYCHQRSSYPWTFGGGTKVEIK
heavy 2: EVRLLESGGGLVQPGGSLRLSCAASGFTFSNYAMGWVRQAPGKGLEWVSAISGSGGSTYYADSVKGRFTTSRDDSKNALYLQMNSLRAEDTAVYYCARGGPGWYAADVWGQGTTVTVSS[here human IgG1 constant region with changes without letters]
light: B1 light
notes: 2+1

Kd [1]: 2300 nM
B7: TfR9.1B.39.36 2+1 anti-TfR bispecific antibody (bispecific antibody, human IgG1, kappa)
heavy 1: EVRLLESGGGLVQPGGSLRLSCAASGFTFSNYAMGWVRQAPGKGLEWVSAISGSGGSTYYADSVKGRFTTSRDDSKNALYLQMNSLRAEDTAVYYCARGGPGWYAADVWGQGTTVTVSSASTKGPSVFPLAPSSKSTSGGTAALGCLVKDYFPEPVTVSWNSGALTSGVHTFPAVLQSSGLYSLSSVVTVPSSSLGTQTYICNVNHKPSNTKVDKKV[here human IgG1 Fc with changes without letters]GGGGSGGGGSGGGGSQVQLVQSGAEVKKPGASVKVSCKASGYTFTEYAMHWVRQAPGQGLEWMGGIDPNTGGTSYNQKFKGRVTMTVDTSTSTAYMELSSLRSEDTAVYYCASQGWLLRGGDYWGQGTLVTVSSGGSEGKSSGSGSESKSTGGSDVVMTQSPLSLPVTLGQPASISCKASQSLLDEEGKTYLNWLQQRPGQSPRRLIYLVSKLDSGVPDRFSGSGSGTDFTLKISRVEAEDVGVYYCWQGTHFPQTFGGGTKVEIK
heavy 2: EVRLLESGGGLVQPGGSLRLSCAASGFTFSNYAMGWVRQAPGKGLEWVSAISGSGGSTYYADSVKGRFTTSRDDSKNALYLQMNSLRAEDTAVYYCARGGPGWYAADVWGQGTTVTVSS[here human IgG1 constant region with changes without letters]
light: B1 light
notes: 2+1; also called Tf9.1B.39.36

Kd [2]: 39 nM
B8: TfR15.WH10 2+1 anti-TfR bispecific antibody (bispecific antibody, human IgG1, kappa)
heavy 1: EVRLLESGGGLVQPGGSLRLSCAASGFTFSNYAMGWVRQAPGKGLEWVSAISGSGGSTYYADSVKGRFTTSRDDSKNALYLQMNSLRAEDTAVYYCARGGPGWYAADVWGQGTTVTVSSASTKGPSVFPLAPSSKSTSGGTAALGCLVKDYFPEPVTVSWNSGALTSGVHTFPAVLQSSGLYSLSSVVTVPSSSLGTQTYICNVNHKPSNTKVDKKV[here human IgG1 Fc with changes without letters]GGGGSGGGGSGGGGSQVQLVQSGAEVKKPGASVKVSCKASGYTFTSYWMHWVRQAPGQGLEWMGNIYPGSGSSNYAQKFQGRVTLTVDTSTSTVYMELSSLRSEDTAVYYCTRSSYYGNFDTMDNWGQGTTVTVSSGGSEGKSSGSGSESKSTGGSDIQLTQSPSFLSASVGDRVTITCRASSSIRYMNWYQQKPGKAPKRLIYDTSTLQSGVPSRFSGSGSGTEFTLTISSLQPEDFATYYCHQRSSYPWTFGGGTKVEIK
heavy 2: EVRLLESGGGLVQPGGSLRLSCAASGFTFSNYAMGWVRQAPGKGLEWVSAISGSGGSTYYADSVKGRFTTSRDDSKNALYLQMNSLRAEDTAVYYCARGGPGWYAADVWGQGTTVTVSS[here human IgG1 constant region with changes without letters]
light: B1 light
notes: 2+1
